# Laboratory results from the RNAGym collection of RNA variant scans (doi:10.7554/elife.90254).
# Read counts are not given, so values of variants with three or more changes are uncertain.
# B1: OR4K15 (parent)
# chain: GUUAACGGUCAUAGGCCAUGGAAACUAGGAGCACCAUUUCGCUGCCAGUGAAGAAAUGAACAAAGAAAAUCUGGGCCAGGCAGGCAUCAAAAGAAAUAGUCUUGCGCUCAACCAGAAAGUCUGUAAUCAUUUUAAGGGUA
# Variants of: B1
# Assay: self-cleavage, relative activity (ratio to wild type); higher = more cleavage; in vitro, sequencing; the parent is a self-cleaving ribozyme
row,Variant,self-cleavage
1,GUUAACGGUCGUAGGCCACGGAAACUAGGAGCACCAUUUCGCUGCCAGUGAAGAAAUGAACAAAGAAAAUCUGGGCCAGGCAGGCAUCAAAAGAAAUAGUCUUGCGCUCAGCCAGAAAGUCUGUGAUCAUUUUAAGGGUA [A11G U19C A111G A125G],0.01
2,GUUAACGGUCGUAGGCCAUGGAAACUAGGAGCACCAUUUCGCUGCCAGUGAAGAAAUGAACAAAGAAAAUCUGGGCCAGGCAGGCAUCAAAAGAAAUAGUCUUGCGCUCGGCCAGAAAGUCUGUAACCAUUUUAAGGGUA [A11G A110G A111G U127C],0.02
3,GUUAACGGUCGUAGGCCAUGGAAACUAGGAGCACCAUUUCGCUGCCAGUGAAGAAAUGAACAAAGAAAAUCUGGGCCAGGCAGGCAUCAAAAGAAAUAGUCUUGCGCUCAACCAUAAAGUCUGUAAUCACUUUAAGGGUA [A11G G115U U130C],0.05
4,GUUAACGGUCGUAGGCCAUGGAAACUAGGAGCACCACUUCGCUGCCAGUGAAGAAAUGAGCAAAGAAAAUCUGGGCCAGGCAGGCAUCAAAAGAAAUAGCCUUGCGCUCAACCAGAAAGUCUGUAAUCAUUUUAAGGGUA [A11G U37C A60G U100C],0.82
5,GUUAACGGUCGUAGGCCAUGGAAACUAGGAGCACCAUUUCGCUGCCAGUAAAGAAAUGAACAAAGAAAAUCUGGGCCAGUCAGGCAUCAAAAGGAAUAGUCUUGCGCUCAACCAGAAAGCCUGUAAUCAUCUUAAGGGUA [A11G G50A G80U A94G U120C U131C],0.07
6,GUUAACGGUCGCAGGCCAUGGGACCUAGGAGCACCAUUUCGCUGCCAGUGAAGAAAUGAACAAAGAAAGUCUGGGCCAGGCAGGCAUCAAAAGAAGUAGACUUGCGCUCAACCAGAAAGUCUGUAAUCAUUUUAAGGGUA [A11G U12C A22G A24C A69G A96G U100A],0.24
7,GUUAACGGUCGUAGGCCACGGAGACUAGGAGCACCAUUCCGCUGCCAGGGAAGAAAUGAACAAAGAAAGUCUGGGCCAGGCAGGCAUCAAAAGAAAUAGUCUUGCGCUCAACCAGAAAGUCUGUAAUCAUUUUAAGGGUA [A11G U19C A23G U39C U49G A69G],1.13
8,GUUAACGGUCGUAGGCCAUGGAAACUAGGAGCACCAUUUCGCUGCCAGUGAAGAAAUGAACAAAGAAAAUCUGGGCCAGGCAGGCAUCAAAAGAAGUAGUCUUGCGCUCAGCCAGAAAGUCUGUAAUCAUUUUAAGGGUA [A11G A96G A111G],0.03
9,GUUAACGGUCGUAGGCCAUGGAAACAAGGAGCACCAUUUCGCUGCCAGUGAAGAAAUGAACAAAGAAAAUCUGGGCCUGGCAGGCAUCAAAAGAAAUAGUCUCGCGCUCAACCAGAAAGUCUGUAAUCAUUUUAAGGGUA [A11G U26A A78U U103C],0.04
10,GUUAACGGUCGUAGGCCACGGAAACUAGGAGCACCAUUUCGCUGCCAGUGUAGAAAUGAACAAAGAAAAUCUGGGCCAGGCAGGCGUCAAAAGAAAUGGUCUUGCGCUCAACCAGAAAGUCUGUAAUCAUUUUAAGGGUA [A11G U19C A51U A86G A98G],0.61
11,GUUAACGGUCGUAGGCCAUGGAAACUAGGAGCACCAUUUCGCUGCCAGUGAAGAAAUGAACAAAGAAAAUCUGGGCCAGGCAGGCAUCAAAAGAAGUAGUCCUGCGCCCAACCAGUAAGUCAGUAAUCAUUUUAAGGGUA [A11G A96G U102C U108C A116U U122A],0
12,GUUAACGGUCGUAGGCCAUGGAAACUAGGAGCACCAGUUCGCUGCCAGUGAAGAAAUGAACAAAGAAAAUCUGGGCCAGGCAGGCAUCAGAAGAAAUAGUCUUGCGCUCAACCAGAAAGUCUGUAAUCAUUUUAAGGGUA [A11G U37G A90G],0.76
13,GUUAACGGUCGUAGACCAUGGGAGCUAGGAGCACCAUUUCGCUGCCAGUGAAGAAAUGAACAAAGAAAAUCUGGGCCAGGCAGGCAUCAAAAGAAAUAGUCUUGCGCUCAACCAGAAAGUCUGUAAUCAUUUUAAGGGUA [A11G G15A A22G A24G],1.15
14,GUUAACGGUCGUAGGCCAUGGAAACUAGGAGCACCACUCCGCUGCCAGUGAUGAAAUGAACAAAGAAAAUCUGGGCCAGGCAGGCAUCAAAAGAAAUAGUCUUGCGCCCAACCAGAAAGUCUGUAAUCAUUUUAAGGGCA [A11G U37C U39C A52U U108C U139C],0.03
15,GUUAACGGUCGCAGGCCAUGGAAACUAGGAGCACCAUUUCGCUGCCAGUGAAGAAAUGAACAAAGAAAAUCUGGGCCAGGCAGGCAUCAAAAGAGAUAGUCUUGCGCUCAACCAGAAAGUCUGUAAUCAUUUUAAGGGUA [A11G U12C A95G],1.19
16,GUUAACGGUCGUAGGCCAUGGAAACUAGGAGCACCAUUUCGCUGCCAGUGAAGAAAUUAACAAAGAAAAUCUGGGCCAGGCAGUCAUCAAAAGAAAUAGUCUUGCGCUCAACCAGAAAGUCUGUAAUCAUUUUAAGGGUA [A11G G58U G84U],0.23
17,GUUAACGGUCGUAGGCCAUGGAAACUAGGAGCACAAUUUCGCUGCCAGUGGAGAAAUGAACAAAGAAAAUCUGGGCCAGGCAGGCAUCAAAAGAAAUUGUCUUGCGCUCGACCAGAAAGUCUGUAAUCAUUUUAAGGGUA [A11G C35A A51G A98U A110G],0.12
18,GUUAACGGUCGUAGGCCAAGGAAACUAGGAGCACCAUUUCGCUGCCAGUGAAGAAAUGAACAAAGAAAAUCUGGGCCAGGCAGGCAUCAAAAGAAAUAGUCUUGCGCUCAGCCAGAAAGUCUGUAAUCAUUUUAAGGGUA [A11G U19A A111G],0.04
19,GUUAACGGUCGUAGACCAUGGAAACUAGGAGCACCAUUUCGCUGCCAGUGAAGAAAUGAACAAAGAAAAUCUGGGCCAGGCAGGCUUCAAAAGAAAUUGUCUUGCGCUCAACCAGAAAGUCUGUAGUCAUUUUAAGGGUA [A11G G15A A86U A98U A126G],1.05
20,GUUAACGGUCGUAGGCCAUGGAAACUAGGAGCACCAUUUCUCUGCCAGUGAAGAAAUGAACAGAGAAAAUCUGGGCCAGGCAGGCAUCAAAAGAAAUAGUCUUGCGCUCAACCAGAAAGUCUGUAAUCAUUUUAAGGGUA [A11G G41U A63G],1.48
21,GUUAACGGUCGUAGGCCAUGGAAACUAGGAGCACCAUCUCGCUGCCAGGGAAGAAAUGAACAAAGAAAAUCUGGGCCAGGCAGGCAUCAAAAGAAAUAGUCUUGCGCUCAACCAGAAAGUCUGUAAACAUUUUAAGGGUA [A11G U38C U49G U127A],1.27

row,Variant,self-cleavage
1,GUUAACGGUCGUAGGCCAUGGAAACUAGGAGCACCAUUUCGCUGCCAGUGAAGAAAUGAACAAAGAAAAUCUGGGCCAGGCAGGCAUCAAAAGAAAUAGUCUUGCGCUCAACCAGAGAGUCUGUAAUCUUUUUAAGGGUA [A11G A117G A129U],0.86
2,GUUAACGGUCGUAGGCCAUGGAAACUAGGAGCACCAUUUCGCUGCCAGUGAAGAAAUGAACAAAGAAAAUCUGGGCCAGGCAGGCAUCAAAAGAAAUAGUCUUGCGCUCAACCAGAAGGUCCGUAAUCAUUUUAAGGGUA [A11G A118G U122C],0.44
3,GUUAACGGUCGUAGGCCAUGGAAACUAGGAGCACCACUUCGCUGCCAGUGAAGAAAUGAACAAAGAAGAUCUGGGCCAGGCGGGCAUCAAAAGAAAUAGUCUUGCGCUCGGCCAGAAAGUCUGUAACCAUUUUAAGGGUA [A11G U37C A68G A82G A110G A111G U127C],0.02
4,GUUAACGGUCGUAGGCCAUGGAAACUAGGAGCACCAUUUCGCUGCCAGUGAAGAAAUAAACAAAGAAAAUCUGGGCCAGGCACGCAUCAGAAGAAAUAGUCUUGCGCCCAACCGGAAAGUCUGUAAUCAUUUUAAGGGUA [A11G G58A G83C A90G U108C A114G],0.06
5,GUUAACGGUCGUAGGCCAUGGAAACUAGGAGCACCAUCUCGCUGCCAGUGUAGAAAUGAACGAAGAAAAUCUAGGCCAGGCAGGCACCAAAAGAAAUAGUCUUGCGCUCAACCAGAAAGUCUGUAAUCAUUUUAAGGGUA [A11G U38C A51U A62G G73A U87C],0.19
6,GUUAACGGUCGUAGGCCAUGGAAACUAGGAGCACCAUUUCGCUGCCAGUGAAGAAAUGAACAAAGAAAAUCUGGGCCAGGCAGGCAUCAAAAGAAAUUGUCUUGCGCUCAACCAGAAAGUCUGUAAUCAUUUUAAGGGCA [A11G A98U U139C],1.68
7,GUUAACGGUCGUAGGCCAUGGAAACUAGGAGCACCAUUUCGCUGCCAGUGAAGAAAUGAACAAAGAAAAUCUGGGCCAGGCAGGCAUCAAAAGAAAUAGUCUUGCGCUCAACCAGAGAGUCUGUAAUCAUCUUAAGGGUA [A11G A117G U131C],1.18
8,GUUAACGGUCGUAGGCCAUGGAAACUAGGAGCACCAUUUGGCUGCCAGUGAAGGAAUGAACAAAGAAUAUCUGGGCCAGGCAGGCAUCAAAAGAAAUAGUCUUGCGCUCAACCAGAAAGUCUGUAAUCAUUUUAAGGGUA [A11G C40G A54G A68U],1.59
9,GUUAACGGUCGUAAGCCAUGGAGACUAGGAGCACCAUUUCGCUGCCAGUGAAGAAAUGAACAAAGAAAAUCUGGGCCAGGCAGGCAUCAAAAGAAAUAGUCUUGCGCUCAACCAGAAAGUCUGUAAUCAUUUUAAGGGUA [A11G G14A A23G],1.11
10,GUUAACGGUCGUAGGCCACGGAAACUAGGAGCACCCUUUCGCUGCCAGUGAAGAAAUGAACAAAGAAAAUCUGGGCCAGGCAGGCAUCAAAAGUAAUAGUCUUGCGCUCAACCUGAAAGUCUGUAAUCAUUUUAAGGGUA [A11G U19C A36C A94U A114U],0.06
11,GUUAACGGUCGUAGGCCAUGGAAACUAGGAGCACCAUUUCGCUGCCAGUGAAGAAAUGAACAAAGAAAAUUUGGGCCAGGCAGGCAUCAAAAGAAAUAGUCUUGCGCUCAACCAGAAAGUCUGUAAUCAUCUUAAGGGUA [A11G C71U U131C],0.07
12,GUUAACGGUCGUAGGCCAUGGAAACUAGGAGCACCAUUUCGCUGCCAAUGAAGAAAUGAUCAAAGAAAUUCUGGGCCAGGCAGGCAUCAAAAGAAAUAGUCUUGCGCUCAACCAGAAAGUCUGUAAUCAUUUUAAGGGUA [A11G G48A A60U A69U],0.92
13,GUUAACGGUCGUAGGCCAUGGAAACUAGGAGCACCAUUUCGCUGCCAGUGAAGAAAUGAACAAAGAAAAUCUGGGCCAGGCAGGCAUCAAAAGAAAUAGUCUUGCGCUCAACCAGAAGGCCUGUAAUCAUUUUAAGGGUA [A11G A118G U120C],0.24
14,GUUAACGGUCGUAGGCCAUGGAAACUAGGAGCACCAUUUCGCUGCCAGUGAAGAAAUGAACAAAGAAAAUCUGGGCCAGGCAGGCAUCAAAAGAAAUUGUCUUGCGCUCAUCCAGAAAGUCUGUAAUCAUUUUAAGGGUA [A11G A98U A111U],0.18
15,GUUAACGGUCGUAGGCCAUGGAAACUAGGAGCACCAUCUCGCUGCCAGUGAAGAAAUGAACAAAGAAAAUCUGGGCCAGGCAGGCAUCAAAAGAAAUAGUCUUGCGCUCAACCAGAAAGUCUGUAAUCGUUUUAAGGGUA [A11G U38C A129G],1.25
16,GUUAACGGUCGUAGGCCAUGGAAACUAGGAGCACCAUUUCGCUGCCAGUGAAGAAAUGAACAAAGAAAAUCUGGGCCAGGCAGGCAUCAAAAGAAGUAGUCUUGCGCCCAACCAGAAAAUCUGUAGUCAUUUUAAGGGUA [A11G A96G U108C G119A A126G],0.01
17,GUUAACGGUCGAAGGCCAUGGAAACUAGGAGCACCAUUUCGCUGCCAGUGAAGAAAUGAACGAAGAAAAUCUGGGCCAGGCAGGCAUCAAAAGAAAUAGUCUUGCGCUCAACCAGAAAGUCUGUGAUCAUUUUAAGGGUA [A11G U12A A62G A125G],0.57
18,GUUAACGGUCGUAGGCCAUGGAAACUAGUAGCACCAUUUCGCUGCCAGUGAAGAAAUGAACAAAGAAAAUCUGGGCCAGGCAGGCAUGAAAAGGAAUAGUCUUACGCUCAACCAGAAAGUCUGUAAUCAUUUUAAGGGUA [A11G G29U C88G A94G G104A],0.02
19,GUUAACGGUCGUAGGCCACGGAAACUAGGAGCACCAUCUCGCUGCCAGUGAGGAAAUGAACAGAGAAAAUCUGGGCCAGGCAGGCAUCAAAAGAAAUAGUCUUGCGCUCAACCAGAAAGUCUGUAAUCAUUUUAAGGGUA [A11G U19C U38C A52G A63G],1.07
20,GUUAACGGUCGUAAGCCAUGGAAACUAGGAGCACCAUUUCGCUGCCAGUGAAGAAAUGAACGAAGAAAAUCUGGGCCAGGCAGGCAUCAAAAGAAAUAGUCUUGCGCUCAACCAGAGAGUCUGUAAUCAUUUUAAGGGUA [A11G G14A A62G A117G],1.81
